Common to all, as to experiment: universal protein binding microarray (PBM)
Holding throughout (conditions): transcription factors of Arabidopsis thaliana; high values mean tight binding; most listed sequences are background and not binding sites; double strand, one strand shown

Experiment [1] has as its target T1, GST-ANAC092(1-176) (UniProt Q9FKA0).
T1 sequence: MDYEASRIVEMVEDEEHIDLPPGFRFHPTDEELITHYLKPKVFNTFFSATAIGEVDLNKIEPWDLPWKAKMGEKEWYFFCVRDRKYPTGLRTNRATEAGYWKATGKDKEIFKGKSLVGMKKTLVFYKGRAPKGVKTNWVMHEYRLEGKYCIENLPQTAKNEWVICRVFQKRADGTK

Experiment [2] concerns the target GST-NTL6(1-168) (UniProt Q9SCK6).
Experiment [3] addresses T2, GST-ANAC019 NAC domain (UniProt Q9C932).
T2 sequence: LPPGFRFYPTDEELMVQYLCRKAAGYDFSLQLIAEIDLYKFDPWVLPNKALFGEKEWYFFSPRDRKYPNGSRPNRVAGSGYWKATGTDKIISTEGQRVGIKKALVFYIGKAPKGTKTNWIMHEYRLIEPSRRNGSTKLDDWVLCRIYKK

Experiment [4] addresses T3, GST-NAP(1-166) (UniProt O49255).
T3 sequence: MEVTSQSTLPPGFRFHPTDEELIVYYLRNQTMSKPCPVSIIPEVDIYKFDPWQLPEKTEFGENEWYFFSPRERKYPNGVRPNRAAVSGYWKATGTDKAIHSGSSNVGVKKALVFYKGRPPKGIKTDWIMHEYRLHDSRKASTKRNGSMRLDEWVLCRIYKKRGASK

Experiment [5] has as its target T4, GST-NTL8 NAC domain (UniProt Q9XIN7).
T4 sequence: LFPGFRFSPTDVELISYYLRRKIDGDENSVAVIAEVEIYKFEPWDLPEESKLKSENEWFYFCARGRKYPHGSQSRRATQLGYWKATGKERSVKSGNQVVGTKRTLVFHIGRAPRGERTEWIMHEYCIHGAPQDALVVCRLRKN

Experiment [6] deals with T5, GST-VND7 NAC domain (UniProt Q9C8W9).
T5 sequence: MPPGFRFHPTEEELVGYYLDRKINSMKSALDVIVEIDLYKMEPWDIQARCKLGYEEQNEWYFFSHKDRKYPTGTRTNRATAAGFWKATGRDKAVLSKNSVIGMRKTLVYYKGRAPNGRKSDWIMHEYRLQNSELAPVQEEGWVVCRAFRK

In experiment [7] the target is T6, GST-VOZ2 (Arabidopsis thaliana) (UniProt Q9SLB9).
T6 sequence: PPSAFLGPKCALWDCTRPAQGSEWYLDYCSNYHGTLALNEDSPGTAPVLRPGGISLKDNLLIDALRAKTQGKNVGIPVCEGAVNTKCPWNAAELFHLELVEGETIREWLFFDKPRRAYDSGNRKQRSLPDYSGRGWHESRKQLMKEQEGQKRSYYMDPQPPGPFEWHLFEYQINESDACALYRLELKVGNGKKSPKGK

The target of experiment [8] is GST-WRKY1(266-371) (UniProt Q9SI37).
Experiment [9] deals with T7, GST-ANAC092(1-285) full length (UniProt Q9FKA0).
T7 sequence: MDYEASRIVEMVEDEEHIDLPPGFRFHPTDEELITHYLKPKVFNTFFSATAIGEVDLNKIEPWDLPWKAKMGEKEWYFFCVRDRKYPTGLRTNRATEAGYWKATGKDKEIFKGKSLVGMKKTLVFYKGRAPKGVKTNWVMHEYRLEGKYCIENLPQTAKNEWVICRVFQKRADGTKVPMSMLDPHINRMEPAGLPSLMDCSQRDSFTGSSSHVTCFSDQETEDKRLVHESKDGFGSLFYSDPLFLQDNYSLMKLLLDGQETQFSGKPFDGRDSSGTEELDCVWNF

Experiment [10] concerns the target T8, GST-VND3 NAC domain (UniProt Q9FH59).
T8 sequence: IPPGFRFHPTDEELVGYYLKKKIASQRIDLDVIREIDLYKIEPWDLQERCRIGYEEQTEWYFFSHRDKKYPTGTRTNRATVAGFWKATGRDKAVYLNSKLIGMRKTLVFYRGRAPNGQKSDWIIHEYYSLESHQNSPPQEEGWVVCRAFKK

For experiment [11], the target named is T9, GST-ANAC055(1-171) (UniProt Q9LDY8).
T9 sequence: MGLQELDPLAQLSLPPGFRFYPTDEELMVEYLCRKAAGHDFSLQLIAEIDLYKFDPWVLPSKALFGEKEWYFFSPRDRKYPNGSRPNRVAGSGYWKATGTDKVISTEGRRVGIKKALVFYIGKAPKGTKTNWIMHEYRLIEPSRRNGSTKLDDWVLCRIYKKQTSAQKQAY

In experiment [12] the target is T10, GST-NST2(1-184) (UniProt Q9M274).
T10 sequence: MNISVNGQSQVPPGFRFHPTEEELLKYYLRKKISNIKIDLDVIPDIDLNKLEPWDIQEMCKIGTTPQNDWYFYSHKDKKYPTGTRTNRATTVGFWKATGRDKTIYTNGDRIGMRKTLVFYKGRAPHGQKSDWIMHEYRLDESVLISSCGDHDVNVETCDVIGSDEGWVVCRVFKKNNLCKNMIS

The target of experiment [13] is T11, GST-ATAF1 NAC domain (UniProt Q39013).
T11 sequence: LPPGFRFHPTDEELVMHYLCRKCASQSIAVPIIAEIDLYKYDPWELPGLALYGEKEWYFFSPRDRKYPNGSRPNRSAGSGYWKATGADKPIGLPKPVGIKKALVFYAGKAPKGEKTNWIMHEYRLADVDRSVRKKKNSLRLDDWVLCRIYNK

The entries are a selection whose mix differs from that of the whole data set. For some assays here: At the low end of the ranking the order means little. The list shows a part of the results. For some assays here: Construct or isoform of the protein are uncertain.

Consider 20 sequences from publication PMC4081100.

Consider AGACGTAA, for which the binding signal in experiment [1] was found to be 0.425 E-score; in experiment [2], 0.0387 E-score; in experiment [3], 0.453 E-score; in [4] it was 0.456 E-score; in experiment [5], 0.139 E-score; in experiment [6], 0.42 E-score. The figures for the binding signal in experiment [7] and in experiment [8] were -0.0184 E-score and -0.0315 E-score, respectively.
On to ACGTCTCC, for which the binding signal in experiment [2] is 0.0291 E-score; in [9], 0.33 E-score; in experiment [4], 0.273 E-score; in experiment [5], 0.052 E-score; in experiment [10], 0.34 E-score; in experiment [7] it was 0.0104 E-score.
With AAACGTGT, the binding signal is 0.0369 E-score in experiment [5], 0.328 E-score in [10], 0.142 E-score in experiment [7] and -0.0783 E-score in experiment [8].
Take GACGCAAA: the binding signal in [1] is 0.382 E-score; in experiment [2], -0.0249 E-score; in experiment [11], 0.0207 E-score; in experiment [4], 0.233 E-score; in experiment [5], 0.0481 E-score; in experiment [10], 0.135 E-score. Further, the binding signal in [7] is 0.137 E-score.
ACACTCCA: the binding signal was 0.398 E-score in [1]; 0.00764 E-score in experiment [2]; -0.0716 E-score in [4]; 0.226 E-score in experiment [12]; -0.0543 E-score in [5]; -0.00441 E-score in experiment [6]. The binding signal is 0.0884 E-score in experiment [7] and -0.135 E-score in experiment [8].
Turning to TGAAGTCA, the binding signal in experiment [1] was 0.00095 E-score; in experiment [3], 0.0391 E-score; in experiment [11] it was -0.0131 E-score; in [13], 0.0448 E-score; in [4], 0.00581 E-score; in [6], -0.00323 E-score. Moreover, the binding signal was 0.0863 E-score in [7] and 0.426 E-score in [8].
In the case of CACGTCAA, the binding signal was -0.00641 E-score in [2]; 0.299 E-score in experiment [4]; 0.252 E-score in experiment [12]; -0.0316 E-score in experiment [5]; 0.332 E-score in [10]; 0.0433 E-score in experiment [7].
As for GTTCCTTA, the binding signal is 0.136 E-score in experiment [1]; 0.458 E-score in experiment [2]; 0.141 E-score in [3]; 0.0564 E-score in [11]; 0.139 E-score in experiment [12]; 0.147 E-score in experiment [6]. The binding signal in [7] was -0.0345 E-score; in [8], -0.0602 E-score.
With ATTTCCCC, the binding signal in [5] is 0.428 E-score; in experiment [10], 0.205 E-score; in experiment [7], 0.175 E-score.
For ATAACGTA, the binding signal amounted to 0.0395 E-score in [3]; 0.37 E-score in experiment [12]; 0.0295 E-score in experiment [5]; 0.334 E-score in experiment [10]; 0.101 E-score in [7].
Regarding ACACGTAT, the binding signal in experiment [1] was 0.289 E-score; in experiment [2] it was 0.0255 E-score; in experiment [3], 0.406 E-score; in [11] it was 0.342 E-score; in [9], 0.369 E-score; in experiment [5] it was -0.0288 E-score. For the same sequence, the figures for the binding signal in [6], in experiment [7] and in [8] were 0.381 E-score, 0.00847 E-score and 0.00825 E-score, respectively.
Turning to AGGGAAAC, the binding signal was 0.0845 E-score in experiment [1]; 0.115 E-score in experiment [2]; -0.00422 E-score in experiment [11]; 0.071 E-score in [9]; 0.14 E-score in experiment [4]; 0.0125 E-score in experiment [12]. The binding signal was 0.482 E-score in experiment [5], -0.0354 E-score in experiment [6], 0.0101 E-score in experiment [7] and -0.0925 E-score in [8].
Take TAAGTCAA: the binding signal in [1] is -0.022 E-score; in experiment [3], 0.0328 E-score; in experiment [4], 0.00781 E-score; in [5], 0.000545 E-score; in experiment [6] it was 0.145 E-score; in experiment [7], 0.104 E-score. The sequence also had a binding signal in experiment [8] of 0.483 E-score.
Turning to CCGTCAAA, the binding signal was 0.036 E-score in [1]; -0.0814 E-score in experiment [2]; -0.00988 E-score in [11]; -0.0255 E-score in experiment [13]; -0.00183 E-score in experiment [9]; 0.0316 E-score in [4]. The binding signal in experiment [12] is -0.00763 E-score; in [5], 0.0179 E-score; in experiment [6], 0.00619 E-score; in experiment [7] it was 0.15 E-score; in [8] it was 0.409 E-score.
As for AACGTAGA, the binding signal in [2] was 0.145 E-score; in experiment [9], 0.329 E-score; in experiment [5], 0.0189 E-score; in experiment [10], 0.206 E-score; in experiment [7] it was 0.101 E-score.
For the sequence GGACGCAA, the binding signal in experiment [2] was -0.076 E-score; in experiment [13], 0.0919 E-score; in experiment [5], -0.103 E-score; in [6] it was 0.0578 E-score; in experiment [7] it was 0.0459 E-score; in experiment [8], -0.0703 E-score.
Take ACACGCCT: the binding signal is -0.112 E-score in experiment [2]; 0.173 E-score in experiment [11]; 0.0122 E-score in [4]; 0.0466 E-score in experiment [12]; -0.0806 E-score in [5]; -0.0333 E-score in experiment [6]. The binding signal is 0.00269 E-score in [7] and -0.11 E-score in experiment [8].
For TGCGTGAA, the binding signal in experiment [2] was -0.0667 E-score; in experiment [13], 0.234 E-score; in experiment [5], -0.00954 E-score; in [6], 0.263 E-score; in [7], 0.175 E-score; in experiment [8], -0.0414 E-score.
In the case of ATACTTAA, the binding signal in experiment [2] is 0.445 E-score; in experiment [3] it was 0.0287 E-score; in [5], 0.154 E-score; in [6], 0.106 E-score; in [7], 0.022 E-score; in experiment [8] it was -0.126 E-score.
For the sequence CACGTAAG, the binding signal was 0.449 E-score in experiment [1]; 0.446 E-score in [9]; 0.17 E-score in experiment [5]; 0.447 E-score in [6]; -0.0655 E-score in experiment [7]; 0.0233 E-score in experiment [8].
